We go through 91 molecules from PubChem BioAssay AID463173 (ICCB-Longwood Screening Facility, Harvard Medical School, 2010).

The whole screen tested about 52,000 compounds, of which about 1,700 (3.3%) were called active. No stated cut-off is given here; in the data, active means survival mostly below about 52% (no sharp cut-off); inactive means mostly above about 56%. Some of the results follow.

The assay has as its system Wild type. Kind of assay: growth inhibition of S. aureus wild type versus tarO mutant, primary screen, teichoic acid synthesis inhibitors, RN4220, OD600 (AID 463173). As to conditions: S. aureus RN4220 wild type/DeltatarO growth, OD600, 18 h, stronger effect = lower value, screened at 18.75 µg/mL (by protocol).
As to `Cc1ccc(S(=O)(=O)C(CNC(=O)C(=O)NCCc2ccc(Cl)cc2)c2cccs2)cc1` (stereo unspecified), the survival is inactive: 71%.
With `O=C(Cn1c(=O)nc(-c2ccccc2)c2cc(Cl)ccc21)NCc1ccc(Cl)cc1`, the survival is inactive: 45%.
Under `CCCS(=O)(=O)N1CC(=O)N(c2ccc(C)cc2C)C(C)(C(=O)NC2CCCCCC2)C1` (stereo unspecified) stands inactive: 76%; under `O=C(Nc1cnn(Cc2ccc(Cl)cc2Cl)c1)c1noc2c1CCc1ccccc1-2`, inactive: 81%; under `COc1ccc(C(CC(=O)Nc2cc(OC)c(OC)c(OC)c2)N2Cc3ccccc3C2=O)cc1` (stereo unspecified), inactive: 65%.
Under `COc1ccc(CCNS(=O)(=O)c2cc(-c3onc(C)c3C)ccc2OC)cc1OC` stands active: -3%; under `CCOc1ccc(CCNC(=O)c2ccc3c(c2)N(Cc2ccccc2F)C(=O)c2ccccc2S3=O)cc1OCC` (stereo unspecified), inactive: 84%.
In the case of `O=C(CCS(=O)(=O)c1cc2c3c(c1)CCN3C(=O)CC2)Nc1cccc(Br)c1`, the survival was inactive: 92%.
On to `O=C(COCc1cc(-c2ccc3c(c2)OCO3)on1)Nc1cc(C(F)(F)F)ccc1Cl`, for which the survival is inactive: 130%.
On to `Cc1cc2c(cc1S(=O)(=O)CCC(=O)N1CCCCC1C)OCC(=O)N2` (stereo unspecified), for which the survival was inactive: 85%.
Turning to `CCN1CCN(CCCNC(=O)Cn2c(-c3cccs3)cc3cc(F)ccc32)CC1`, the survival was inactive: 126%.
Under `Cc1ccc(C)c(Nc2nn3c(=O)c4cc5c(cc4nc3s2)OCO5)c1` stands inactive: 61%; under `CCc1ccc(NC(=O)CSc2nc(=O)n(Cc3ccncc3)c3c2CCC3)cc1`, inactive: 80%.
`O=C(Oc1ccc(Cl)cc1)c1ccc2snnc2c1`: the survival is inactive: 105%.
As for `O=C(O)c1cnc2ccccn2c1=O`, the survival was inactive: 109%.
As for `O=c1c(S(=O)(=O)c2ccccc2)cn(Cc2cccc(F)c2)c2cc(N3CCCC3)c(F)cc12`, the survival is inactive: 126%.
Take `COc1ccccc1N1CCN(S(=O)(=O)CCNC(=O)Cc2ccc(Cl)cc2)CC1`: the survival was inactive: 82%.
For `CCCCN(C)CCNC(=O)CN1C(=O)CSc2ccc(S(=O)(=O)N3CCCCC3)cc21` the value was inactive: 132%.
Consider `CCOC(=O)N1CCc2c(sc(NCc3cccs3)c2C(=O)Nc2ccc(OC)cc2OC)C1`, for which the survival is inactive: 72%.
Turning to `COc1ccc(-c2nnn(CC(=O)Nc3sc4c(c3C#N)CCCC4)n2)cc1`, the survival is inactive: 109%.
Regarding `Cn1c(=O)c2c(nc(N3CCOCC3)n2Cc2ccccc2Cl)n(C)c1=O`, the survival was inactive: 68%.
Under `CCC(C)NC(=O)c1cnn2c(C)cc(C)nc12` (stereo unspecified) stands inactive: 89%.
For the molecule `COCCCNC(=O)CCCn1c(=O)c2ccccc2n(CC(=O)Nc2ccc(C)cc2Cl)c1=O`, the survival is inactive: 85%.
For `O=C(NCCc1ccc(Cl)cc1)c1nnc(Cc2ccc(Cl)cc2Cl)o1`, the survival was inactive: 85%.
For `CC(=O)Nc1ccc(N2CCN(Cc3ccccc3)CC2)cc1` the value was inactive: 106%.
For `CC(C)Cn1c(-c2ccccc2Cl)nc2ccccc21` the value was active: 26%; for `N/C(=N\OC(=O)Cc1ccccc1)c1ccncc1`, inactive: 110%.
For the molecule `O=C(CSc1nnc(NC(=O)C2CC2)s1)Nc1ccccc1F`, the survival was inactive: 108%.
Turning to `CCOc1ccc(-c2c(C)nn3c(C)c(C(=O)NCCN(C)C)cnc23)cc1OCC`, the survival was inactive: 87%.
`CC(C)Cn1c(CN2CCN(c3cccc(Cl)c3)CC2)nc2c1c(=O)[nH]c(=O)n2C`: the survival is inactive: 137%.
`O=C(CSc1nncn2c1cc1occc12)Nc1ccc(F)c(Cl)c1`: the survival was inactive: 61%.
Consider `COc1ccc(N(CC(=O)NCCc2ccc(C)cc2)S(=O)(=O)c2c(C)nn(C)c2C)cc1`, for which the survival is inactive: 73%.
Take `O=C(NCCc1ccc(Cl)cc1)c1ccc2nc(CCc3ccccc3)oc2c1`: the survival was inactive: 59%.
In the case of `COc1cc(OC)cc(-c2nnc(SCC(=O)c3ccc([N+](=O)[O-])cc3)o2)c1`, the survival is inactive: 78%.
Take `Cc1nc(S(=O)(=O)N2CCN(c3cccc(Cl)c3)CC2)cn1C`: the survival is inactive: 124%.
As to `Oc1ccc(Br)cc1C1CC(c2ccccc2)=NC(c2ccco2)N1` (stereo unspecified), the survival was active: 1%.
Turning to `COc1cc(Nc2nn(-c3ccc(OC(F)(F)F)cc3)nc2C(C)=O)cc(OC)c1`, the survival is inactive: 89%.
`CCOC(=O)c1cc(-c2ccc(OC)cc2)n(CCC(=O)Nc2cccc(C)c2C)c1C`: the survival is inactive: 74%.
Under `CCCCc1nn2c(=O)cc(COC(=O)c3ccc4c(c3)OCO4)nc2s1` stands inactive: 81%.
For `O=C(CCCn1c(=O)[nH]c2ccc(Br)cc2c1=O)N1CCN(c2cccc(Cl)c2)CC1` the value was active: 6%.
In the case of `COc1cc(OC)cc(-n2c(=O)c3ccccc3n(Cc3ccccc3C#N)c2=O)c1`, the survival was inactive: 141%.
Under `CCOC(=O)c1ccc2c(c1)N(CC#N)C(=O)C(C)(C)O2` stands inactive: 102%; under `COc1ccccc1C(=O)NCC(c1ccc(N(C)C)cc1)N1CCc2ccccc21` (stereo unspecified), inactive: 64%; under `Nc1nc(SCc2ccccc2)ns1`, inactive: 96%.
With `Cc1ccc(NCc2nnc(SCc3cc(C)ccc3C)o2)c(C)c1`, the survival was inactive: 110%.
Turning to `CCC(=O)Nc1cc(-c2cn3cccnc3n2)ccc1OC`, the survival was inactive: 112%.
As to `CCOc1ccc(-c2cn3c(n2)sc2cc(C(=O)NCCCN4CCCCC4)ccc23)cc1`, the survival is active: -1%.
`CC1=C(C(=O)Nc2ccccc2)C(C(C)C)n2nc(SCc3ccccc3C)nc2N1` (stereo unspecified): the survival was inactive: 99%.
Turning to `COc1cc(NC(=O)c2ccc(-c3nc(CSc4ccccc4)c(C)o3)cc2)cc(OC)c1`, the survival was inactive: 111%.
For `CCc1ccc(NC(=O)Cn2nc(C(F)(F)F)c3c2CCCC3)cc1` the value was inactive: 95%; for `COc1ccc(N(CC(C)C)S(=O)(=O)c2nnc(NC(=O)c3ccco3)s2)cc1`, inactive: 59%; for `CCOC(=O)C(C)(C)Sc1nnc(COc2ccccc2)n1CC`, inactive: 100%.
Regarding `O=C(Cn1ncn2cccc2c1=O)NCc1cccc(Br)c1`, the survival was inactive: 88%.
Turning to `COc1ccccc1Cc1nc2ccccc2nc1SCC(=O)Nc1c(C)cccc1C`, the survival was inactive: 79%.
In the case of `CCCc1nc(SCC(=O)N(CC)CC)c2ccccc2n1`, the survival is inactive: 105%.
With `Cc1c(Cl)cccc1NC(=O)Cn1c(=O)cc(C)c2c(C)nn(-c3cccc(F)c3)c21`, the survival was inactive: 74%.
`COc1ccc(NC(=O)c2cc(-c3ccc(F)cc3)no2)cc1OC`: the survival was inactive: 91%.
Turning to `CCCNC(=O)Cn1nc(-c2ccc(C)cc2)c2cnc3ccc(CC)cc3c21`, the survival was active: 10%.
Under `Cc1cc(NC(=O)c2ccco2)cc(-c2nc3ccccc3o2)c1O` stands inactive: 80%; under `CN(C)CCN(Cc1ccccc1)S(=O)(=O)c1csc(C(N)=O)c1`, inactive: 71%; under `Cc1ccc(S(=O)(=O)n2c(CN3CCCC(C)C3)nc3ccccc32)cc1` (stereo unspecified), inactive: 108%.
On to `CCN(C(=O)CCS(=O)(=O)c1cc2c(cc1C)NC(=O)CO2)c1cccc(C)c1`, for which the survival is inactive: 80%.
As to `CCn1c(C)c(C)c2cc(C(=O)N3CCN(c4ccccc4)CC3)ccc21`, the survival is inactive: 67%.
For `COc1ccc(CCNC(=O)c2ccc3c(c2)nc2n3CCCCC2)cc1OC` the value was inactive: 84%; for `CCCn1cnc2cc(NC(=O)c3cc(OC)c(OC)c(OC)c3)ccc21`, inactive: 76%; for `CCc1ccc(-c2nc(CS(=O)CC(=O)NCc3ccc(F)cc3)c(C)o2)cc1` (stereo unspecified), inactive: 73%.
Take `COCCNC(=S)N1CCC(c2nc(-c3ccc(N(C)C)cc3)no2)CC1`: the survival was inactive: 107%.
Under `Cc1ccc(Cl)cc1NC(=O)CN1C(=O)c2ccccc2Sc2ncccc21` stands inactive: 86%; under `Cc1ccc(CNS(=O)(=O)c2c(C)nc3sc(C)cn3c2=O)cc1`, inactive: 108%.
Under `Cc1cccc(N2CCN(Cc3nnc(-c4cccc(Br)c4)o3)CC2)c1C` stands inactive: 83%; under `CCCOC(=O)c1cccc(NC(=O)CSc2nnc3cc(C)c4ccccc4n23)c1`, inactive: 120%; under `CC(=O)c1ccc(NC(=O)c2nc(-c3ccccc3)n(-c3ccc(C)cc3)n2)cc1`, inactive: 41%.
For `Clc1ccc2nc(-c3ccc(N4CCOCC4)cc3)c(Nc3ccccc3)n2c1` the value was inactive: 63%; for `COc1ccccc1NC(=O)Cn1c(=O)oc2cc(S(=O)(=O)NCc3ccccc3)ccc21`, inactive: 102%.
Consider `O=C(NCc1cccc(Cl)c1)C1CCCN(c2nn3cc(-c4ccc(F)cc4)nc3s2)C1` (stereo unspecified), for which the survival was inactive: 85%.
Regarding `CCOc1ccc(CNc2cc(C)nc3nc(-c4cccc(C)c4)nn23)cc1OC`, the survival is inactive: 80%.
As for `Cc1cccc(NC(=O)c2ccc3oc(=O)c(S(=O)(=O)c4ccc(F)cc4)cc3c2)c1C`, the survival was inactive: 127%.
As for `CCc1ccccc1N(C)C(=O)c1nn(-c2ccc(OC)cc2)c(=O)c2c1c1ccccc1n2C`, the survival is inactive: 89%.
In the case of `CCOc1ccc(S(=O)(=O)c2cc3cccc(OCC)c3oc2=O)cc1`, the survival is inactive: 81%.
For the molecule `CCOC(=O)c1cnc2ccc(OCC)cc2c1NCCN(C)C`, the survival was inactive: 103%.
With `CC1CCc2c(sc3nnn(Cc4ccccc4Cl)c(=O)c23)C1` (stereo unspecified), the survival is inactive: 16%.
Under `CCOc1ccccc1C1C(C(=O)Nc2ccccc2)=C(C)Nc2nc(-c3ccccc3)nn21` (stereo unspecified) stands inactive: 94%; under `CCCCn1c(SCC(=O)c2ccccc2)nc2sc3c(c2c1=O)CCCC3`, inactive: 62%.
Take `CCOc1ccccc1Oc1ncnc2c1oc1ccccc12`: the survival was inactive: 88%.
With `CC1CCC(NC(=O)c2ccc3c(c2)N(Cc2ccccc2F)C(=O)c2ccccc2S3(=O)=O)CC1` (stereo unspecified), the survival was inactive: 89%.
Turning to `CCOC(=O)c1cc(C)n(CC2CCC(C(=O)Nc3cccc(C(C)=O)c3)CC2)c1C` (stereo unspecified), the survival was inactive: 79%.
In the case of `CCOc1ccccc1CNCc1c(C(=O)O)n(Cc2ccccc2)c2cc(OC)ccc12`, the survival is inactive: 84%.
Under `Cc1ccc(S(=O)(=O)Nc2ccc(-c3ccc(N4CCCCCC4)nn3)cc2)c(C)c1` stands inactive: 67%.
Take `COc1ccc(N2CCN(C(=O)c3cnc(N4CCOCC4)c4ccccc34)CC2)cc1`: the survival is inactive: 138%.
With `Cc1ccc(-c2nnc3c4ccccc4c(-c4ccccc4)nn23)cc1`, the survival is inactive: 123%.
In the case of `CC(C)NC(=O)CSc1cn(CC(=O)N2CCCCCC2)c2ccccc12`, the survival is inactive: 95%.
